# Test results from the supplement of paper PMC11417369.
# ± gives the standard deviation of the averaged measurements. The list shows a part of the results.
# Tested on: PfAP2-G AP2 domain (GST-tagged)
# Experiment: gcPBM binding intensity (ln(normalized median fluorescence intensity)); higher = stronger DNA binding
# In short: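 Binding intensity is the highest Masliner-normalised natural-log median intensity over replicate spots in either probe orientation. To obtain it, GST-tagged P. falciparum DNA-binding domains made in E. coli were incubated for 1 h on an Agilent 4 × 180k array of primer-extended double-stranded 36-bp intergenic genomic probes plus negative controls. Detection used Alexa488 anti-GST antibody with scanning at 488 nm.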
row,Sequence,gcPBM binding intensity (ln)
1,TTTACAGAAAGTTACATACACACTAATATTTACACC [CACACA_site1009],10.4 ± 0.33
2,CTTCCTTAGGAATGTACACACATATATAATATGTTG [CACACA_site461],11.5 ± 0.87
3,TACAGACAGAAATGCACACACATATTTATATTTATA [CACACA_site7139],10.2 ± 0.29
4,TTTTAAATAATTCGTAATTATAATTATGGAAAAAAG [CACACA_negctrl_site152],9.95 ± 0.18
5,AAATAAATTAAAATAAATTAAATTAAATTAGCATTA [GTGCAC_negctrl_site531],9.48 ± 0.2
6,TGTATGTTATGTATATGTACATATCTTTGTATTTAT [XGTACX_site6920],11 ± 0.53
7,ACCTTATTTATTATTGCATGTGACCATCAGATGGTA [TGCATGCA_site288],11.1 ± 0.66
8,TTTATTTTTTACCAAGTGCAATATATTATAATAATA,10.3 ± 0.37
9,TTTTTTTTTTTTTTTGTGCACAATTATTTCAATTTT [GTGCAC_site9884],10.4 ± 0.61
10,TATTTATAAGTTTACGCATGCATATAATTATTAATA [TGCATGCA_site311],10 ± 0.22
11,TACAAAATATTTTACACACACATATAAATACAGATA [CACACA_site5447],10.185 ± 0.007
12,AAGATATGTACTAATACACACACATATATATATATA [CACACA_site8249],11.2 ± 0.79
13,AAAAAAAAAAACAATACATGCATAATATTAATAAAA [TGCATGCA_site913],9.77 ± 0.057
14,TTCATACATAGAAAATGTACATATATATATATATAT [XGTACX_site1895],11 ± 0.71
15,ATATATATGCATAATACACACATCATATAATTAACC [CACACA_site1643],10.1 ± 0.13
16,AAAGAAAAAAAATAATGTACTTATGTATTTCAGAAA [XGTACX_site3570],11.1 ± 0.73
17,TTTCATAAGAGAAAGACACACAAATATATATTTATT [CACACA_site827],9.86 ± 0.16
18,ACATTACCATATAAAACACACAAACATACATACATA [CACACA_site7709],10.15 ± 0.092
19,TATAATATTTGGTGCACACAAATTAACAACTGTTTA [CACACA_site3742],10.8 ± 0.73
20,ATTTTTTTTTTTAATACACACAATTTTGATGAAGCA [CACACA_site3157],10.2 ± 0.28
21,TATCCATGCATTTACACACACACAAAAAAAAATTCT [CACACA_site4100],10.3 ± 0.38
22,ATAATAAAAAATACAAGTACACATATTATATATATA [XGTACX_site5355],11.4 ± 0.79
23,AATGCTATCATTAATGCACACATTTAAAATTAATAT [CACACA_site3548],10.1 ± 0.24

row,Sequence,gcPBM binding intensity (ln)
1,TTTAAAACCTTACATACACACAAATATATATATATA [CACACA_site677],9.98 ± 0.45
2,TTTAAGTTTTTACTTTGTACGTATTATAATAAAATC [XGTACX_site5683],11.5 ± 0.79
3,TATATTTACTTATGAAGTACATATATATATATATAT [XGTACX_site5069],11.4 ± 1
4,TGTTCTTTTTATACTACACACTGATAAAAAAACAAA [CACACA_site3001],10.3 ± 0.33
5,CAAACAATTAAACAAACACACATATACAAGTATTTA [CACACA_site5177],9.94 ± 0.12
6,ATACATACATATATATGTACTTATATTTTACACATT [XGTACX_site1688],11.2 ± 0.75
7,TACAATCTAAGGAGCACACAAAAATGGATAAATATA [CACACA_site933],10.4 ± 0.18
8,TAATAAAAGAAAAAAAGTACAGACATATTGAATTTT [XGTACX_site5044],11.5 ± 0.93
9,TTTATTTTCATATGAACACACATATTTATATTATAA [CACACA_site7165],10.1 ± 0.13
10,GCTTGAATAATCAATAGTACACACATATAAATATAT [XGTACX_site5964],11.2 ± 0.82
11,AACACAAGAACAGAACGTACACACACATATATATAT [XGTACX_site7347],11.3 ± 0.61
12,AGGTGTGAGACCACGTTCACAAAATAAAATACATAA [CACACA_negctrl_site326],10.8 ± 0.53
13,AATTTCTACTATTGTATGCACTTTCATACATACATA [GTGCAC_site9924],10.3 ± 0.2
14,TTTTTTTTTTTTTTTTGTACTCATACATACTATCAT [XGTACX_site3650],11.1 ± 1.1
15,ACATCAAGCAGACACACACACACACCCACCCACCCA [CACACA_site8012],10.6 ± 0.28
16,CAGGCACTAATAAACACACACATATAAATATAAATA [CACACA_site6320],9.975 ± 0.078
17,CAAAACCTTTTATGTACACACATATACATCCCACTT [CACACA_site5716],11.5 ± 0.91
18,ATATATATATAATTTTGTACATAATAGCAATTCTAA [XGTACX_site653],10.6 ± 0.32
19,GGATGGAGTAGTTAAGCATAATAAATAAAATTATGT [CACACA_negctrl_site578],10 ± 0.22
20,GTTTTAAACAAAAATTGTACAATATAATCTTCCTAT [XGTACX_site2851],10.9 ± 0.4
21,AACAACTATTAATTTACACACATGTATATATTTTAC [CACACA_site3116],10.3 ± 0.33
22,AATAGCTAGCTGTGCACACAAACATATTTTCCAAAT [CACACA_site880],10.4 ± 0.2
